Values joined by “and” are separate entries in the source; they are usually repeats but may differ in a detail not shown here. Identical values can stand only once. The campaign covered roughly 420,000 compounds. About 50,000 (12%) were called active. Inconclusive results, whose numbers are uncertain, are shown with a selection of clear calls. The call rests on the fitted dose curve; in most records, active means well fitted inhibition curve with a large enough effect; inconclusive means small, poorly fitted or top-dose-only effect; inactive means flat fitted curve, though single readings scatter. Potencies of inconclusive entries are doubtful fits and often do not repeat.
Assay: qHTS for Inhibitors of human tyrosyl-DNA phosphodiesterase 1 (TDP1): qHTS in cells in presence of CPT; further: nearly all actives have a fitted effect of over 55% in size
Conditions: chicken DT40 Tdp1-/-;hTDP1 cells + 20 nM CPT, ATP luminescence, 48 h; activity change, negative = growth inhibition: at 46.2 µM (top of the series) unless noted
In short: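 Chicken DT40 Tdp1-/- cells complemented with human TDP1, 400 cells/well, exposed to compounds plus 20 nM camptothecin for at least 48 h at 37 C; viability read as ATP content by CellTiter-Glo luminescence.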
With `O=[N+]([O-])c1ccc(Cl)cc1Sc1ccccn1` the “activity change, negative = growth inhibition” value was inactive: -1.91%. With `Cc1cc(C)n2nc(SCc3ccccc3C(=O)O)nc2n1` the “activity change, negative = growth inhibition” value was inactive: -2.36%. With `Cc1nn2c(N3CCCC3)cc(C(C)C)nc2c1-c1ccccc1` the Potency was inconclusive: 14.6 µM [inhibitor, single point]. With `Cc1c(O)ccc2c(-c3ccccc3)cc(=O)oc12` the Potency was active: 13 µM. With `CCOc1ccccc1NC(=O)C(=O)NCCc1sc2nc(-c3ccc(OC)cc3)nn2c1C` the Potency was inconclusive: 18.4 µM [inhibitor, single point]. In the case of `COc1ccccc1-c1nnc(SCC(=O)O)n1-c1ccccc1`, the “activity change, negative = growth inhibition” value is reported as inactive: 30.9%. For `COc1ccc(C(CC(=O)Nc2cc(C)ccn2)N2Cc3ccccc3C2=O)cc1` (configuration not stated), the Potency was inconclusive: 20.6 µM [inhibitor, single point]. In the case of `OC(c1ccccc1)(c1nc(/C=C/c2ccccc2)cs1)C(F)(F)F` (configuration not stated), the Potency is reported as inconclusive: 23.1 µM [inhibitor, single point]. For `O=C(c1ccccc1)N1CCN(c2ccc(Cl)cc2)CC1`, the Potency was inconclusive: 16.4 µM [inhibitor, single point]. With `Cc1ccc(N2CC(C(=O)Nc3nnc(SCCN4CCOCC4)s3)CC2=O)cc1` (configuration not stated) the “activity change, negative = growth inhibition” value was inactive: 5.82%. With `Cc1ccc2nc(-c3ccccn3)[nH]c2c1` the Potency was inconclusive: 5.8 µM [inhibitor, single point]. With `CCC(=O)N1Cc2cc(C(=O)N(C)C)nc(-c3cccc(-c4cncnc4)c3)c2[C@@H]1CCO` the “activity change, negative = growth inhibition” value was inactive: 0.364%. With `O=C1NC(c2ccc3c(c2)OCO3)Nc2ccccc21` (configuration not stated) the Potency was active: 23.1 µM. With `O=C(c1c[nH]c2ccccc12)N1CCN(c2ccccc2)CC1` the Potency was inconclusive: 29.1 µM [inhibitor, single point]. With `COc1cc(NC(=O)C(C)Oc2ccccc2)c(OC)cc1NC(=O)c1ccccc1` (configuration not stated) the Potency was active: 20.6 µM. In the case of `CSc1ccc(CN2CCCC(N3CCN(c4ccccc4)CC3)C2)cc1` (configuration not stated), the Potency is reported as inconclusive: 29.1 µM [inhibitor, single point]. In the case of `O=C(CNCc1ccc(F)cc1)Nc1ccc(S(=O)(=O)N2CCOCC2)cc1`, the “activity change, negative = growth inhibition” value is reported as inactive: -23.9%. For `CCOc1ccc(C(=O)COC(=O)c2c(-c3ccccc3)noc2C)cc1`, the Potency was inconclusive: 29.1 µM [inhibitor, single point]. For `COc1cc2c(cc1NC(=O)CSc1nnc(Cc3cccs3)n1C)oc1ccccc12`, the Potency was inconclusive: 29.1 µM [inhibitor, single point]. In the case of `CCc1nc2ccc(C(=O)Nc3cccc(OC)c3)cn2c1N(C)Cc1ccc(OC)cc1`, the Potency is reported as inconclusive: 29.1 µM [inhibitor, single point]. In the case of `CCN(CC)S(=O)(=O)c1ccc(N2CCN(CCOc3ccc(OC)cc3)CC2)nc1`, the Potency is reported as active: 18.4 µM. In the case of `Cc1ccc(Cn2c(=O)n(-c3ccc(C)cc3)c(=O)c3c2c2cc(C)ccc2n3C)cc1`, the “activity change, negative = growth inhibition” value is reported as inactive: 7.58%. In the case of `COc1ccc(/C(C)=N/Nc2nc3ccccc3n3cnnc23)cc1OC`, the Potency is reported as inconclusive: 25.9 µM [inhibitor, partial curve, poor fit]. With `COc1cc(OC)cc(C(=O)NCCSc2c[nH]c3ccccc23)c1` the Potency was inconclusive: 20.6 µM [inhibitor, single point]. In the case of `COC(=O)c1ccc(NC(=O)CN2CCN(S(=O)(=O)c3ccc(Br)cc3)CC2)cc1`, the Potency is reported as inconclusive: 20.6 µM [inhibitor, single point] and inconclusive: 25.9 µM [inhibitor, single point]. With `C/C(CC(=O)Nc1ccc(N(C)C)cc1)=N\NC(=O)c1ccccn1` the Potency was inconclusive: 23.1 µM [inhibitor, single point]. For `CCOc1ccc(CCNC(=O)c2cc3c(=O)n(C)c4ccccc4c3n2C)cc1OCC`, the Potency was active: 23.1 µM. With `CCOc1cc(-c2c(C#N)c(N)nc3c2CCCC3C)ccc1O` (configuration not stated) the Potency was active: 9.2 µM. With `CCOC(=O)C1=C(COC(=O)c2ccc([N+](=O)[O-])s2)NC(=O)NC1C` (configuration not stated) the Potency was inconclusive: 13 µM [inhibitor, single point]. For `Cc1ccc(Cn2c(CN3CC(C)OC(C)C3)nc3c2c(=O)[nH]c(=O)n3C)cc1` (configuration not stated), the “activity change, negative = growth inhibition” value was inactive: -13.5%. For `Cc1ccc(/C=N/Nc2nc(Cl)c(Cl)cc2Cl)s1`, the “activity change, negative = growth inhibition” value was inactive: -6.24%. In the case of `CCCCOc1ccc(/C=C/C2=CC(C)(C)NC(=S)N2)cc1OCC`, the Potency is reported as inconclusive: 16.4 µM [inhibitor, partial curve, poor fit]. For `COc1ccc(CCC(=O)N2c3ccccc3N=C(c3ccc4c(c3)OCO4)C2C(=O)Nc2ccc(OC)cc2)cc1` (configuration not stated), the “activity change, negative = growth inhibition” value was inactive: 1.87%. In the case of `O=C(CCC(=O)OCC(=O)c1ccc([N+](=O)[O-])cc1)NC1CCCCC1`, the Potency is reported as inconclusive: 29.1 µM [inhibitor, single point]. With `O=C(NCCCN1CCCC1)c1ccc(CS(=O)(=O)c2ccc(Br)cc2)o1` the Potency was inconclusive: 16.4 µM [inhibitor, partial curve]. With `c1ccc(NC2=NCCN2CCC2CCCCC2)cc1` the Potency was active: 23.1 µM. With `C[C@@H]1CC(=O)NN=C1c1ccc(NN=C(C#N)C#N)cc1` the Potency was active: 10.6 µM.
On the % scale 0 is the no-effect control and ±100 the full control effect; potency means the concentration at half of the fitted maximal effect; tags describe the fitted curve by direction and shape.
